Measurements taken from ChEMBL document CHEMBL4888484, “Replenishing the malaria drug discovery pipeline: Screening and hit evaluation of the MMV Hit Generation Library 1 (HGL1) against asexual blood stage Plasmodium falciparum ,using a nano luciferase reporter read-out” (2022).
Out of some 150,000 compounds screened, about 540 (0.36%) showed an effect of 50% or more. The list shows a part of the results.

These molecules were tested on Plasmodium falciparum (assay: Primary screen in NF54 nanoGlo assay, in single point, at 2uM, 72h; a lower Z score goes with more inhibition). Details: timepoint 72 hour.
Type: functional, Erythrocyte

Question: CC(C)=CCN[C@@H](C)c1ccccc1Br was tested. Which “% Inhibition” value did it give?
Answer: Its value is -10%.

Question: And the Z score?
Answer: The Z score was 1.1.

Question: Which “% Inhibition” value does the source give for COCc1cc(=O)[nH]c2cc(NC(=O)c3ccco3)ccc12 here?
Answer: The value was -24%.

Question: And the Z score?
Answer: Its Z score is 3.46.

Question: With CCCCN(C)S(=O)(=O)N1CCC2(CC1)C[C@@H]2c1nc(-c2cccc(Cl)c2)no1 as the molecule, how does the “% Inhibition” value read?
Answer: Its value is -10%.

Question: What about the Z score of the same molecule?
Answer: Its Z score is 1.16.

Question: With Cc1ccc(N2CCN(CCn3cnnc3C)[C@@H](C)C2)cc1 as the molecule, how does the “% Inhibition” value read?
Answer: The value was -14%.

Question: And the Z score?
Answer: The Z score was 1.58.

Question: For Cc1noc(C)c1CN1C(=O)[C@@H]2CC[C@H]1CN(C(=O)c1ccn(C)n1)C2, which “% Inhibition” value is on record?
Answer: Its value is -4%.

Question: And the Z score?
Answer: Its Z score is 0.48.

Question: Which results are given for COCCOC[C@H]1CCN(C(=O)c2cc(C)oc2C)C1?
Answer: % Inhibition: -13%; Z score: 1.98

Question: Which results are given for CCc1cc(OC)ccc1CN(C)[C@@H]1COC[C@H]1O?
Answer: % Inhibition: 2%; Z score: -0.24

Question: What does the source list for Cc1cccc(C)c1OCC(O)CN1CCCC(Cn2cncn2)C1 (stereo unspecified)?
Answer: % Inhibition: -6%; Z score: 0.79

Question: What does the source list for COC(=O)CCNC(=O)c1ccc(NCCn2ccnc2)cc1?
Answer: % Inhibition: -10%; Z score: 1.98

Question: For CC(C)(C)OC(=O)NC1C[C@H]2COC[C@@H](C1)C2N (stereo partly specified), which “% Inhibition” value is on record?
Answer: Its value is -11%.

Question: And the Z score?
Answer: Its Z score is 1.23.

Question: What does the source list for Cc1cc(C(F)(F)F)n(C[C@@H](C)CNC(=O)N2CCNC(=O)C2)n1?
Answer: % Inhibition: -9%; Z score: 1.25

Question: Which “% Inhibition” value does the source give for Cc1c(CCC(=O)N2CC3(CCCC3)c3cccc(Cl)c32)cnn1C here?
Answer: Its value is -7%.

Question: What about the Z score of the same molecule?
Answer: Its Z score is 1.32.

Question: What does the source list for COc1cc(CC(=O)N(C)c2cccnc2OC)ccc1Cl?
Answer: % Inhibition: 4%; Z score: -0.56

Question: What does the source list for CCC1(CC)C(OC)CC1N(C)c1cncc(C(N)=O)n1 (stereo unspecified)?
Answer: % Inhibition: -5%; Z score: 0.71

Question: With CC(=O)N1CC[C@H](NC(=O)c2ncccc2Br)C1 as the molecule, how does the “% Inhibition” value read?
Answer: The value was 22%.

Question: And the Z score?
Answer: Its Z score is -2.54.

Question: Which “% Inhibition” value does the source give for O[C@@]1(C(F)F)CCN(Cc2ccco2)C1 here?
Answer: Its value is 6%.

Question: What about the Z score of the same molecule?
Answer: Its Z score is -1.08.

Question: Which results are given for CN(CC#N)CCCc1ccc(Cl)cc1?
Answer: % Inhibition: -7%; Z score: 1.04

Question: With O=C1[C@H]2CN(Cc3ccccc3Cl)C[C@H]2C(=O)N1Cc1ccc2c(c1)OCO2 as the molecule, how does the “% Inhibition” value read?
Answer: The value was -10%.

Question: And the Z score?
Answer: The Z score was 1.21.

Question: CC(C)[C@H](NS(=O)(=O)N1CCN(C)CC1)c1ccccn1 was tested. Which “% Inhibition” value did it give?
Answer: The value was 0%.

Question: What about the Z score of the same molecule?
Answer: Its Z score is -0.09.

Question: With Cc1cc(NC(=O)C(C)N2CCCCC2Cn2cncn2)on1 (stereo unspecified) as the molecule, how does the “% Inhibition” value read?
Answer: The value was 5%.

Question: And the Z score?
Answer: Its Z score is -0.56.

Question: With Cc1ccccc1C(CC(=O)NCc1ccccc1)c1cnc2n1CCCC2C (stereo unspecified) as the molecule, how does the “% Inhibition” value read?
Answer: The value was -2%.

Question: What about the Z score of the same molecule?
Answer: Its Z score is 0.3.

Question: What does the source list for CCOC(=O)CC1(N(C)C(=O)c2cc(C)n[nH]2)CCCCC1?
Answer: % Inhibition: -11%; Z score: 2.22

Question: Which results are given for FC(F)(F)c1ccc(-c2nc(CN(Cc3ccccc3)Cc3ccccc3)cs2)cc1?
Answer: % Inhibition: 0%; Z score: 0.08

Question: Which results are given for Cn1c(C(F)(F)F)nn(C2CCN(S(=O)(=O)Cc3cccc(Cl)c3)CC2)c1=O?
Answer: % Inhibition: -10%; Z score: 1.09

Question: Which results are given for CN1C(=O)N(c2cccc(C#N)c2)C(=O)C12CCCC2?
Answer: % Inhibition: -1%; Z score: 0.12

Question: Which “% Inhibition” value does the source give for O=C(c1ccc(CNS(=O)(=O)c2ccc3ccccc3c2)cc1)N1CCOCC1 here?
Answer: The value was -8%.

Question: And the Z score?
Answer: The Z score was 0.91.

Question: CCC(=O)N1CCc2ccc(OCc3nc(C(=O)NCc4ccc(F)cc4)cs3)cc2[C@@H]1c1ccc(C)cc1 was tested. Which “% Inhibition” value did it give?
Answer: Its value is -19%.

Question: And the Z score?
Answer: The Z score was 2.45.

Question: CCOc1ncccc1C(=O)N[C@@H](C)c1nc[nH]n1 was tested. Which “% Inhibition” value did it give?
Answer: Its value is -11%.

Question: And the Z score?
Answer: The Z score was 1.06.

Question: How did the “% Inhibition” value turn out when CCc1nnc(CNC(=O)Nc2cnn(C(C)C)c2)s1 was run?
Answer: Its value is 0%.

Question: And the Z score?
Answer: Its Z score is -0.04.

Question: What does the source list for COCC(=O)N[C@@H]1CN(Cc2ccc(C)o2)CC[C@@H]1CO?
Answer: % Inhibition: -9%; Z score: 1.26

Question: What does the source list for CCc1cc(CC(=O)N2CCCc3ccnc(N(C)C)c32)n(C)n1?
Answer: % Inhibition: 1%; Z score: -0.18

Question: How did the “% Inhibition” value turn out when O=C(CCc1c[nH]c2ccccc12)Oc1ccc(F)cc1 was run?
Answer: Its value is 6%.

Question: And the Z score?
Answer: Its Z score is -0.63.

Question: CCN(Cc1noc(C)n1)c1cccc(O)c1 was tested. Which “% Inhibition” value did it give?
Answer: Its value is -3%.

Question: What about the Z score of the same molecule?
Answer: The Z score was 0.41.

Question: How did the “% Inhibition” value turn out when C=CCN1CCC(N[C@H](c2cccc(C(F)(F)F)c2)C2CC2)CC1 was run?
Answer: The value was -16%.

Question: What about the Z score of the same molecule?
Answer: The Z score was 1.4.

Question: What does the source list for CCOc1c(CN(C)C(=O)c2ccc([C@H]3CCCNC3)cc2)cccc1OC?
Answer: % Inhibition: -4%; Z score: 0.7

Question: Which results are given for FC(F)[C@H](NCc1cn(C2CCC2)nn1)c1cccc(Cl)c1?
Answer: % Inhibition: -4%; Z score: 0.62

Question: N#Cc1ccc2c(c1)CCCC2NCC1CCCS1(=O)=O (stereo unspecified) was tested. Which “% Inhibition” value did it give?
Answer: The value was 16%.

Question: And the Z score?
Answer: The Z score was -1.68.

Question: With Cc1nc(C(=O)N2CCN(S(C)(=O)=O)CC2)c(Cc2ccccc2)s1 as the molecule, how does the “% Inhibition” value read?
Answer: Its value is -14%.

Question: And the Z score?
Answer: The Z score was 1.77.

Question: Cn1ccnc1-c1ccccc1C(=O)N1CCC[C@H](CNC(=O)c2cccnc2)C1 was tested. Which “% Inhibition” value did it give?
Answer: Its value is 7%.

Question: What about the Z score of the same molecule?
Answer: Its Z score is -0.91.

Question: For Cc1cc(F)ccc1N1CCC[C@H](NC(=O)c2cnn(C)c2)C1=O, which “% Inhibition” value is on record?
Answer: The value was -8%.

Question: What about the Z score of the same molecule?
Answer: The Z score was 1.06.

Question: How did the “% Inhibition” value turn out when N#CCCN(Cc1ccc(Cl)cc1F)C[C@H]1CCOC1 was run?
Answer: Its value is -17%.

Question: What about the Z score of the same molecule?
Answer: The Z score was 2.26.

Question: For Cc1nn(C)c(C)c1OCCOCC(F)(F)F, which “% Inhibition” value is on record?
Answer: Its value is -5%.

Question: And the Z score?
Answer: Its Z score is 0.64.

Question: For Cc1cc(C(=O)N2CCOC3(CCS(=O)(=O)CC3)C2)sc1C, which “% Inhibition” value is on record?
Answer: Its value is -9%.

Question: What about the Z score of the same molecule?
Answer: The Z score was 1.28.
